{
  "source": "a compilation of properties of binary mixtures (doi:10.1016/j.molliq.2019.111925)",
  "assay": "xn = mol fraction of the nth substance listed",
  "conditions": "100 kPa",
  "note": "The densities may have been worked out from excess volumes.",
  "data": [
    {"smiles": "O", "note": "+ CC(=O)[O-].CC[n+]1ccn(C)c1", "values": [
      {"measurement": "mass density", "setting": "333.15 K, x2 = 0", "value": 983.2, "unit": "kg/m3"},
      {"measurement": "mass density", "setting": "343.15 K, x2 = 0", "value": 977.8, "unit": "kg/m3"}
    ]},
    {"smiles": "CC(=O)[O-].CC[n+]1ccn(C)c1", "note": "+ O", "values": [
      {"measurement": "mass density", "setting": "293.15 K, x1 = 0.105", "value": 1078.5, "unit": "kg/m3"},
      {"measurement": "mass density", "setting": "293.15 K, x1 = 0.4445", "value": 1108.5, "unit": "kg/m3"},
      {"measurement": "mass density", "setting": "293.15 K, x1 = 0.5602", "value": 1107.6, "unit": "kg/m3"},
      {"measurement": "mass density", "setting": "293.15 K, x1 = 0.7375", "value": 1104.1, "unit": "kg/m3"},
      {"measurement": "mass density", "setting": "293.15 K, x2 = 0.0174", "value": 1101.3, "unit": "kg/m3"},
      {"measurement": "mass density", "setting": "298.15 K, x1 = 0.4445", "value": 1105.4, "unit": "kg/m3"},
      {"measurement": "mass density", "setting": "298.15 K, x1 = 0.5602", "value": 1104.5, "unit": "kg/m3"},
      {"measurement": "mass density", "setting": "298.15 K, x1 = 0.7375", "value": 1100.8, "unit": "kg/m3"},
      {"measurement": "mass density", "setting": "298.15 K, x1 = 0.8521", "value": 1099.4, "unit": "kg/m3"},
      {"measurement": "mass density", "setting": "298.15 K, x1 = 1", "value": 1098.1, "unit": "kg/m3"},
      {"measurement": "mass density", "setting": "298.15 K, x2 = 0.0174", "value": 1098.2, "unit": "kg/m3"},
      {"measurement": "mass density", "setting": "303.15 K, x1 = 0.105", "value": 1072.1, "unit": "kg/m3"},
      {"measurement": "mass density", "setting": "303.15 K, x1 = 0.1988", "value": 1095.2, "unit": "kg/m3"},
      {"measurement": "mass density", "setting": "303.15 K, x1 = 0.4445", "value": 1102.4, "unit": "kg/m3"},
      {"measurement": "mass density", "setting": "303.15 K, x1 = 0.5602", "value": 1101.5, "unit": "kg/m3"},
      {"measurement": "mass density", "setting": "303.15 K, x1 = 0.7375", "value": 1098, "unit": "kg/m3"},
      {"measurement": "mass density", "setting": "303.15 K, x1 = 1", "value": 1094.9, "unit": "kg/m3"},
      {"measurement": "mass density", "setting": "303.15 K, x2 = 0.0174", "value": 1095.1, "unit": "kg/m3"},
      {"measurement": "mass density", "setting": "313.15 K, x1 = 0.1988", "value": 1088.5, "unit": "kg/m3"},
      {"measurement": "mass density", "setting": "313.15 K, x1 = 0.4445", "value": 1096.2, "unit": "kg/m3"},
      {"measurement": "mass density", "setting": "313.15 K, x1 = 0.5602", "value": 1095.4, "unit": "kg/m3"},
      {"measurement": "mass density", "setting": "313.15 K, x1 = 0.7375", "value": 1091.9, "unit": "kg/m3"},
      {"measurement": "mass density", "setting": "313.15 K, x1 = 1", "value": 1088.8, "unit": "kg/m3"},
      {"measurement": "mass density", "setting": "313.15 K, x2 = 0.0174", "value": 1088.9, "unit": "kg/m3"},
      {"measurement": "mass density", "setting": "323.15 K, x1 = 0.105", "value": 1059, "unit": "kg/m3"},
      {"measurement": "mass density", "setting": "323.15 K, x1 = 0.4445", "value": 1090.1, "unit": "kg/m3"},
      {"measurement": "mass density", "setting": "323.15 K, x1 = 0.5602", "value": 1089.3, "unit": "kg/m3"},
      {"measurement": "mass density", "setting": "323.15 K, x1 = 0.7375", "value": 1085.9, "unit": "kg/m3"},
      {"measurement": "mass density", "setting": "323.15 K, x1 = 1", "value": 1082.7, "unit": "kg/m3"},
      {"measurement": "mass density", "setting": "323.15 K, x2 = 0.0174", "value": 1082.8, "unit": "kg/m3"},
      {"measurement": "mass density", "setting": "333.15 K, x1 = 0.105", "value": 1052.2, "unit": "kg/m3"},
      {"measurement": "mass density", "setting": "333.15 K, x1 = 0.1988", "value": 1074.9, "unit": "kg/m3"},
      {"measurement": "mass density", "setting": "333.15 K, x1 = 0.5602", "value": 1083.3, "unit": "kg/m3"},
      {"measurement": "mass density", "setting": "333.15 K, x1 = 0.7375", "value": 1079.9, "unit": "kg/m3"},
      {"measurement": "mass density", "setting": "343.15 K, x1 = 0.105", "value": 1045.2, "unit": "kg/m3"},
      {"measurement": "mass density", "setting": "343.15 K, x1 = 0.4445", "value": 1077.7, "unit": "kg/m3"},
      {"measurement": "mass density", "setting": "343.15 K, x1 = 0.5602", "value": 1077.2, "unit": "kg/m3"},
      {"measurement": "mass density", "setting": "343.15 K, x1 = 0.7375", "value": 1073.9, "unit": "kg/m3"},
      {"measurement": "mass density", "setting": "343.15 K, x2 = 0.0174", "value": 1070.8, "unit": "kg/m3"}
    ]}
  ]
}
